Laboratory results from the supplement of paper PMC4967469.
The IC50 comes from the fitted curve, where viability falls to half of the control; fits outside the tested doses are given as limits. AUC, from the same fit, is the share of area under the viability curve across the 256-fold dose range; the more sensitive the line, the further below 1. For some assays here: Where the top dose is marked as inferred, it was derived from the fitted curves, not read from the paper. For some assays here: Where an entry number is given, a second screen of the drug exists; the two often differ.

Key:
Experiment in all cases: Viability of human cancer cell lines after 72 h of drug (GDSC screen)
Nilotinib = compound: Cc1cn(-c2cc(NC(=O)c3ccc(C)c(Nc4nccc(-c5cccnc5)n4)c3)cc(C(F)(F)F)c2)cn1 [Nilotinib]; settings: top dose 2 µM
Procedure: (§1)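 Human cancer cell lines in 384-well plates, medium with 10% serum, drug for 72 h over a 256-fold dose range (nine 2-fold or five 4-fold steps up to the top dose). Adherent lines were fixed and stained with the nucleic acid dye Syto60, suspension lines read with resazurin; signal relative to control wells, capped at 0 and 100%. One two-parameter sigmoid per drug and line, fitted in a mixed model over all curves with the slope shared within a line.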

GNF-2 = compound: NC(=O)c1cccc(-c2cc(Nc3ccc(OC(F)(F)F)cc3)ncn2)c1 [GNF-2]; settings: top dose 1.28 µM; top dose inferred
Procedure: as §1

MP470 = compound: S=C(NCc1ccc2c(c1)OCO2)N1CCN(c2ncnc3c2oc2ccccc23)CC1 [MP470]; settings: top dose 20 µM; top dose inferred
Procedure: as §1

T0901317 = compound: O=S(=O)(c1ccccc1)N(CC(F)(F)F)c1ccc(C(O)(C(F)(F)F)C(F)(F)F)cc1 [T0901317]; settings: top dose 10.24 µM; top dose inferred
Procedure: as §1

Bicalutamide = compound: CC(O)(CS(=O)(=O)c1ccc(F)cc1)C(=O)Nc1ccc(C#N)c(C(F)(F)F)c1 [Bicalutamide]; settings: top dose inferred
Procedure: as §1

TW-37 = compound: CC(C)c1ccccc1Cc1cc(C(=O)Nc2ccc(S(=O)(=O)c3ccccc3C(C)(C)C)cc2)c(O)c(O)c1O [TW-37]; settings: top dose 5 µM
Procedure: as §1

KIN001-270 = compound: Cc1ccc(Nc2cc(-c3cccc(N4C(=O)c5ccccc5C4=O)c3)ncn2)cc1NS(C)(=O)=O [KIN001-270]; settings: top dose 20 µM; top dose inferred
Procedure: as §1

LFM-A13 = compound: C/C(O)=C(\C#N)C(=O)Nc1cc(Br)ccc1Br [LFM-A13]; settings: top dose 16 µM; top dose inferred
Procedure: as §1

AUY922 = compound: CCNC(=O)c1noc(-c2cc(C(C)C)c(O)cc2O)c1-c1ccc(CN2CCOCC2)cc1 [AUY922]; settings: top dose 0.256 µM; top dose inferred
Procedure: as §1

Gemcitabine = compound: Nc1ccn([C@@H]2O[C@H](CO)[C@@H](O)C2(F)F)c(=O)n1 [Gemcitabine]; settings: top dose 1.024 µM
Procedure: as §1

[1] = top dose 10 µM, screen: GDSC drug entry 1502
[2] = top dose 1.024 µM, screen: GDSC drug entry 150

KASUMI-1 (acute myeloid leukaemia, suspension)
AUC (Nilotinib): 0.455
IC50 (Nilotinib): 94.4 nM
AUC (GNF-2): 0.985
IC50 (GNF-2): > 1280 nM
AUC (MP470): 0.506
IC50 (MP470): 1.29 µM
AUC (T0901317): 0.923
IC50 (T0901317): > 10.2 µM
AUC (Bicalutamide; [1]): 0.965
IC50 (Bicalutamide; [1]): > 10 µM
AUC (TW-37): 0.698
IC50 (TW-37): 1130 nM

D-247MG (glioma, adherent)
AUC (Nilotinib): 0.979
IC50 (Nilotinib): > 2000 nM
AUC (GNF-2): 0.98
IC50 (GNF-2): > 1280 nM
AUC (MP470): 0.314
IC50 (MP470): 0.308 µM
AUC (T0901317): 0.944
IC50 (T0901317): > 10.2 µM
AUC (Bicalutamide; [1]): 0.977
IC50 (Bicalutamide; [1]): > 10 µM
AUC (KIN001-270): 0.975
IC50 (KIN001-270): > 20 µM
AUC (TW-37): 0.632
IC50 (TW-37): 829 nM

RL95-2 (endometrium, adherent)
AUC (Nilotinib): 0.987
IC50 (Nilotinib): > 2000 nM
AUC (GNF-2): 0.908
IC50 (GNF-2): > 1280 nM
AUC (MP470): 0.93
IC50 (MP470): > 20 µM
AUC (T0901317): 0.984
IC50 (T0901317): > 10.2 µM
AUC (Bicalutamide; [1]): 0.972
IC50 (Bicalutamide; [1]): > 10 µM
AUC (KIN001-270): 0.942
IC50 (KIN001-270): > 20 µM

GA-10 (Burkitt lymphoma, suspension)
AUC (Nilotinib): 0.965
IC50 (Nilotinib): > 2000 nM
AUC (GNF-2): 0.986
IC50 (GNF-2): > 1280 nM
AUC (Bicalutamide; [1]): 0.99
IC50 (Bicalutamide; [1]): > 10 µM
AUC (TW-37): 0.448
IC50 (TW-37): 231 nM

COLO-829 (melanoma, adherent)
AUC (GNF-2): 0.957
IC50 (GNF-2): > 1280 nM
AUC (MP470): 0.935
IC50 (MP470): > 20 µM
AUC (T0901317): 0.979
IC50 (T0901317): > 10.2 µM
AUC (Bicalutamide; [2]): 0.972
IC50 (Bicalutamide; [2]): > 1.02 µM
AUC (LFM-A13): 0.957
IC50 (LFM-A13): > 16 µM
AUC (KIN001-270): 0.975
IC50 (KIN001-270): > 20 µM
AUC (AUY922): 0.871
IC50 (AUY922): > 256 nM
AUC (TW-37): 0.626
IC50 (TW-37): 822 nM
AUC (Gemcitabine): 0.971
IC50 (Gemcitabine): > 1020 nM

TC-71 (Ewing sarcoma, adherent)
AUC (GNF-2): 0.992
IC50 (GNF-2): > 1280 nM
AUC (MP470): 0.792
IC50 (MP470): 7.4 µM
AUC (T0901317): 0.943
IC50 (T0901317): > 10.2 µM
AUC (Bicalutamide; [2]): 0.992
IC50 (Bicalutamide; [2]): > 1.02 µM
AUC (Bicalutamide; [1]): 0.971
IC50 (Bicalutamide; [1]): > 10 µM
AUC (LFM-A13): 0.989
IC50 (LFM-A13): > 16 µM
AUC (KIN001-270): 0.874
IC50 (KIN001-270): 14 µM
AUC (AUY922): 0.869
IC50 (AUY922): 172 nM
AUC (TW-37): 0.47
IC50 (TW-37): 262 nM
AUC (Gemcitabine): 0.407
IC50 (Gemcitabine): 37.3 nM

NCI-H23 (lung adenocarcinoma, adherent)
AUC (GNF-2): 0.984
IC50 (GNF-2): > 1280 nM
AUC (MP470): 0.975
IC50 (MP470): > 20 µM
AUC (T0901317): 0.935
IC50 (T0901317): > 10.2 µM
AUC (Bicalutamide; [2]): 0.986
IC50 (Bicalutamide; [2]): > 1.02 µM
AUC (Bicalutamide; [1]): 0.98
IC50 (Bicalutamide; [1]): > 10 µM
AUC (LFM-A13): 0.988
IC50 (LFM-A13): > 16 µM
AUC (KIN001-270): 0.981
IC50 (KIN001-270): > 20 µM
AUC (AUY922): 0.815
IC50 (AUY922): 139 nM
AUC (TW-37): 0.545
IC50 (TW-37): 414 nM
AUC (Gemcitabine): 0.656
IC50 (Gemcitabine): 173 nM

NB17 (neuroblastoma, adherent)
AUC (Nilotinib): 0.952
IC50 (Nilotinib): > 2000 nM
AUC (GNF-2): 0.983
IC50 (GNF-2): > 1280 nM
AUC (MP470): 0.698
IC50 (MP470): 4.93 µM
AUC (KIN001-270): 0.944
IC50 (KIN001-270): > 20 µM
AUC (TW-37): 0.649
IC50 (TW-37): 866 nM

JAR (urogenital system, adherent)
AUC (GNF-2): 0.987
IC50 (GNF-2): > 1280 nM
AUC (MP470): 0.917
IC50 (MP470): > 20 µM
AUC (T0901317): 0.938
IC50 (T0901317): > 10.2 µM
AUC (Bicalutamide; [2]): 0.988
IC50 (Bicalutamide; [2]): > 1.02 µM
AUC (Bicalutamide; [1]): 0.973
IC50 (Bicalutamide; [1]): > 10 µM
AUC (LFM-A13): 0.988
IC50 (LFM-A13): > 16 µM
AUC (KIN001-270): 0.971
IC50 (KIN001-270): > 20 µM
AUC (AUY922): 0.958
IC50 (AUY922): > 256 nM
AUC (TW-37): 0.293
IC50 (TW-37): 82.4 nM
AUC (Gemcitabine): 0.984
IC50 (Gemcitabine): > 1020 nM

LXF-289 (lung adenocarcinoma, adherent)
AUC (GNF-2): 0.984
IC50 (GNF-2): > 1280 nM
AUC (MP470): 0.944
IC50 (MP470): > 20 µM
AUC (T0901317): 0.973
IC50 (T0901317): > 10.2 µM
AUC (Bicalutamide; [2]): 0.986
IC50 (Bicalutamide; [2]): > 1.02 µM
AUC (Bicalutamide; [1]): 0.962
IC50 (Bicalutamide; [1]): > 10 µM
AUC (LFM-A13): 0.967
IC50 (LFM-A13): > 16 µM
AUC (KIN001-270): 0.984
IC50 (KIN001-270): > 20 µM
AUC (AUY922): 0.522
IC50 (AUY922): 18.3 nM
AUC (TW-37): 0.39
IC50 (TW-37): 157 nM
AUC (Gemcitabine): 0.238
IC50 (Gemcitabine): 11.3 nM

LOXIMVI (melanoma, semi-adherent)
AUC (GNF-2): 0.985
IC50 (GNF-2): > 1280 nM
AUC (MP470): 0.96
IC50 (MP470): > 20 µM
AUC (T0901317): 0.983
IC50 (T0901317): > 10.2 µM
AUC (Bicalutamide; [2]): 0.989
IC50 (Bicalutamide; [2]): > 1.02 µM
AUC (Bicalutamide; [1]): 0.977
IC50 (Bicalutamide; [1]): > 10 µM
AUC (LFM-A13): 0.98
IC50 (LFM-A13): > 16 µM
AUC (KIN001-270): 0.986
IC50 (KIN001-270): > 20 µM
AUC (AUY922): 0.561
IC50 (AUY922): 23 nM
AUC (TW-37): 0.51
IC50 (TW-37): 332 nM
AUC (Gemcitabine): 0.236
IC50 (Gemcitabine): 12.3 nM

HOP-62 (lung adenocarcinoma, adherent)
AUC (GNF-2): 0.985
IC50 (GNF-2): > 1280 nM
AUC (MP470): 0.78
IC50 (MP470): 8.19 µM
AUC (T0901317): 0.981
IC50 (T0901317): > 10.2 µM
AUC (Bicalutamide; [2]): 0.986
IC50 (Bicalutamide; [2]): > 1.02 µM
AUC (Bicalutamide; [1]): 0.985
IC50 (Bicalutamide; [1]): > 10 µM
AUC (LFM-A13): 0.955
IC50 (LFM-A13): > 16 µM
AUC (KIN001-270): 0.937
IC50 (KIN001-270): > 20 µM
AUC (AUY922): 0.44
IC50 (AUY922): 11 nM
AUC (TW-37): 0.474
IC50 (TW-37): 266 nM
AUC (Gemcitabine): 0.677
IC50 (Gemcitabine): 199 nM

MZ7-mel (melanoma, adherent)
AUC (GNF-2): 0.983
IC50 (GNF-2): > 1280 nM
AUC (MP470): 0.919
IC50 (MP470): > 20 µM
AUC (T0901317): 0.979
IC50 (T0901317): > 10.2 µM
AUC (Bicalutamide; [2]): 0.987
IC50 (Bicalutamide; [2]): > 1.02 µM
AUC (Bicalutamide; [1]): 0.985
IC50 (Bicalutamide; [1]): > 10 µM
AUC (LFM-A13): 0.972
IC50 (LFM-A13): > 16 µM
AUC (KIN001-270): 0.987
IC50 (KIN001-270): > 20 µM
AUC (AUY922): 0.636
IC50 (AUY922): 38.5 nM
AUC (TW-37): 0.603
IC50 (TW-37): 606 nM
AUC (Gemcitabine): 0.441
IC50 (Gemcitabine): 43.8 nM

Calu-6 (lung adenocarcinoma, adherent)
AUC (GNF-2): 0.982
IC50 (GNF-2): > 1280 nM
AUC (MP470): 0.912
IC50 (MP470): > 20 µM
AUC (T0901317): 0.977
IC50 (T0901317): > 10.2 µM
AUC (Bicalutamide; [2]): 0.984
IC50 (Bicalutamide; [2]): > 1.02 µM
AUC (Bicalutamide; [1]): 0.928
IC50 (Bicalutamide; [1]): > 10 µM
AUC (LFM-A13): 0.977
IC50 (LFM-A13): > 16 µM
AUC (KIN001-270): 0.97
IC50 (KIN001-270): > 20 µM
AUC (AUY922): 0.729
AUC (TW-37): 0.658
IC50 (TW-37): 918 nM
AUC (Gemcitabine): 0.21
IC50 (Gemcitabine): 7.68 nM
